Laboratory results published in PubChem BioAssay (NCATS).
The shares of active, inactive and inconclusive entries below differ from those in the screen. Entries that show only a call come without a potency. A potency beside an inconclusive call is a rough fit, not a confirmed value. Active and inactive are the calls of the source. The call rests on the fitted dose curve; in most records, active means well fitted cell-killing curve with a large enough effect; inconclusive means small, poorly fitted or top-dose-only effect, or effect the other way; inactive means flat fitted curve, though single readings scatter.

test system: SKOV3; experiment: Primary qHTS to identify gynecologic anti-cancer compounds using libraries of approved drugs and bioactive compounds (AID 1345084); settings: Gynecologic cancer cell panel viability, ATPlite luminescence, 48 h; series mostly up to 57.5 µM; further: nearly all actives have a fitted effect of over 55% in size
In short: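 Cytotoxicity screen measuring ATP content by luciferase luminescence. Each compound is applied at five concentrations for 48 h at 37 C with 5% CO2.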
Potency means the concentration at half of the fitted maximal effect; tags describe the fitted curve by direction and shape.

SMILES | Potency
O=C1c2ccccc2S(=O)(=O)N1CCCCN1CCN(c2ncccn2)CC1 | inactive
CCOc1ccc(NC(=O)CC(C)O)cc1 (centres undefined) | inactive
O=C1OC2(c3ccccc31)c1cc(Br)c(O)c(Br)c1Oc1c2cc(Br)c(O)c1Br | inactive
C=C1C[C@H]2[C@@H]3C=C(C)C4=CC(=O)CC[C@]4(C)[C@H]3CC[C@]2(C)[C@@]1(OC(C)=O)C(C)=O | inactive
COC(=O)[C@H]1[C@H]2C[C@@H]3c4[nH]c5cc(OC)ccc5c4CCN3C[C@H]2C[C@@H](OC(=O)/C=C/c2cc(OC)c(OC)c(OC)c2)[C@@H]1OC | inactive
CC(C)COC(=O)c1ccc(N)cc1 | inconclusive: 7.08 µM [rising, single point]
C[C@@H](O)[C@H]1C(=O)N2C(C(=O)O)=C(S[C@@H]3CN[C@H](C(=O)N(C)C)C3)[C@H](C)[C@H]12 | inactive
CC1(C)O[C@@H]2C[C@H]3[C@@H]4C[C@H](F)C5=CC(=O)CC[C@]5(C)[C@H]4[C@@H](O)C[C@]3(C)[C@]2(C(=O)CO)O1 | inactive
CC(C)(O)CC(=O)NCCn1ccc2ncnc(Nc3ccc(Oc4cccc(C(F)(F)F)c4)c(Cl)c3)c21 | active: 22.4 µM
CC(C)n1cnc2c(NCCc3ccc(O)cc3)nc(-c3csc4ccccc34)nc21 | inconclusive: 5.62 µM [rising, partial curve, poor fit]
NS(=O)(=O)Cc1noc2ccccc12 | inactive
CC(=O)Oc1cccc(C)c1 | inactive
O=[N+]([O-])c1cccc(S(=O)(=O)NCCNS(=O)(=O)c2cccc([N+](=O)[O-])c2)c1 | inconclusive: 39.8 µM [cytotoxic, single point]
COc1cc2c(cc1OC)[C@@H]1CC(=O)[C@@H](CC(C)C)CN1CC2 | inactive
